{"source": "PubChem BioAssay AID463173", "about": "(ICCB-Longwood Screening Facility, Harvard Medical School, 2010)", "note": "Among all 52,000 compounds or so, about 4,300 (8.3%) were called active. Cut-off read from the data, not from the text of the source: active = survival mostly below about 52% (no sharp cut-off); inactive = mostly above about 56%. The list shows a part of the results."}
{"system": "DeltatarO mutant", "assay": "growth inhibition of S. aureus wild type versus tarO mutant, primary screen, teichoic acid synthesis inhibitors, RN4220, OD600 (AID 463173)", "conditions": "OD600, 18 h, stronger effect = lower value, screened at 18.75 µg/mL (by protocol)"}
{"smiles": "CCn1c(=O)c2cc(C(=O)NCCc3ccc(OC)c(OC)c3)sc2c2ccccc21", "survival": "active: 42%"}
{"smiles": "CCOc1ccc(CNC(=O)c2ccc(Sc3ccc(C)cc3)c(N)c2)cc1OC", "survival": "inactive: 91%"}
{"smiles": "COc1ccc(-c2cc(C(=O)Nc3c(C(=O)c4ccc(C)c(F)c4)oc4ccccc34)no2)cc1", "survival": "inactive: 55%"}
{"smiles": "CC(C)NC(=O)Cn1c(=O)nc(-c2ccccc2)c2ccccc21", "survival": "inactive: 89%"}
{"smiles": "CCOc1ccc(CCNC(=O)c2ccc(C)c(-n3cnc4cccnc43)c2)cc1", "survival": "inactive: 94%"}
{"smiles": "Cc1ccc(S(=O)(=O)c2nc(-c3ccco3)oc2SCC(=O)c2ccc(Cl)cc2)cc1", "survival": "inactive: 63%"}
{"smiles": "O=C(CSc1ncn[nH]1)Nc1nccs1", "survival": "inactive: 90%"}
{"smiles": "CCOc1ccc(Nc2cc(C)c(C#N)c3nc4ccccc4n23)cc1", "survival": "inactive: 88%"}
{"smiles": "Cc1cccc(N(C)C(=O)CS(=O)(=O)c2cccc3nsnc23)c1", "survival": "inactive: 85%"}
{"smiles": "Cc1ccc(C(C)C)c(OCc2ccc(C(=O)Nc3ccc(S(N)(=O)=O)cc3C)o2)c1", "survival": "inactive: 49%"}
{"smiles": "COc1cccc(CNC(=O)c2ccc3c(Cl)c4c(nc3c2)CCCC4)c1", "survival": "active: 49%"}
{"smiles": "O=C(Nc1cccnc1)c1cccs1", "survival": "inactive: 80%"}
{"smiles": "COc1ccc(C(=O)NCc2nnc(SCC(=O)Nc3ccc(C)cc3)n2-c2ccccc2)cc1", "survival": "inactive: 119%"}
{"smiles": "CCc1ccc(CNC(=O)c2ccc(NC(=O)N3CCSc4ncccc43)cc2)cc1", "survival": "inactive: 70%"}
{"smiles": "CCc1nc2nc(C)cc(Nc3cc(Cl)ccc3OC)n2n1", "survival": "inactive: 69%"}
{"smiles": "O=C(CSc1nc2ccccc2c(=O)n1Cc1ccco1)N(c1ccccc1)c1ccccc1", "survival": "inactive: 102%"}
{"smiles": "Cc1ccc(S(=O)(=O)N2CCC(c3nnc(-c4cccc(C)c4)o3)CC2)cc1", "survival": "inactive: 76%"}
{"smiles": "Cc1cc(C(F)(F)F)n2nc(C(N)=O)cc2n1", "survival": "inactive: 89%"}
{"smiles": "CCOc1ccc(CNC(=O)CCc2c(C)nn(-c3ccc(N4CCOCC4)nn3)c2C)cc1", "survival": "inactive: 72%"}
{"smiles": "O=c1[nH]c2ccc(NS(=O)(=O)c3ccc(F)cc3)cc2s1", "survival": "inactive: 99%"}
{"smiles": "CCOc1ccc2nc(N3CCN(C(=O)C(C)C)CC3)sc2c1", "survival": "inactive: 84%"}
{"smiles": "COc1ccccc1/C=N\\NC(N)=S", "survival": "inactive: 60%"}
{"smiles": "CC1CCN(c2nn3c(=O)c(C(=O)NCCc4ccc(Cl)cc4)cnc3s2)CC1", "survival": "inactive: 69%"}
{"smiles": "COc1ccc2oc(=O)cc(CN3CCN(C(=O)c4ccccc4Br)CC3)c2c1", "survival": "active: 44%"}
{"smiles": "O=C(OCc1ccco1)c1ccc2c(c1)N(Cc1ccc([N+](=O)[O-])cc1)C(=O)c1ccccc1S2", "survival": "inactive: 83%"}
{"smiles": "c1ccc(N(c2ccccc2)c2nc(-n3nnc4ccccc43)nc(-n3nnc4ccccc43)n2)cc1", "survival": "inactive: 82%"}
{"smiles": "Cc1nc(-n2nc(C)c(CCC(C)C)c2C)sc1C(=O)Nc1cccc(Cl)c1C", "survival": "active: 56%"}
{"smiles": "CCOC(=O)c1c(NC(=O)c2ccccc2C)sc2c1CCCC2", "survival": "active: 12%"}
{"smiles": "Oc1ccccc1-c1nc(/C=C/c2ccccc2)nn1-c1ccccc1", "survival": "active: 7%"}
{"smiles": "O=C(CN1C(=O)COc2ccc(S(=O)(=O)N3CCCC3)cc21)NCCc1ccc(Cl)cc1", "survival": "inactive: 120%"}
{"smiles": "COc1ccc(CCNC(=O)Cn2c(=O)nc(-c3ccccc3F)c3cc(Cl)ccc32)cc1OC", "survival": "inactive: 91%"}
{"smiles": "O=C(C1CCC(CNS(=O)(=O)c2cccs2)CC1)N1CCN(c2ccc(Cl)cc2)CC1", "note": "(stereo unspecified)", "survival": "inactive: 60%"}
{"smiles": "Cc1ccc2[nH]c(CSc3nnc(C)s3)cc(=O)c2c1", "survival": "inactive: 81%"}
{"smiles": "Cc1cc(N)c(O)cc1C", "survival": "inactive: 61%"}
{"smiles": "COc1ccc(NC(=O)CSc2nnc(-c3nonc3NC(C)=O)n2C)cc1Cl", "survival": "inactive: 55%"}
{"smiles": "Cc1ccccc1-n1c2nc(=O)[nH]c(=O)c-2cc2c(Cl)cccc21", "survival": "inactive: 73%"}
{"smiles": "O=c1cc2nc(-c3ccccc3F)nc(SCc3ccc(Br)cc3)n2[nH]1", "survival": "active: 0%"}
{"smiles": "Cc1cccc(Cn2c(SCc3ccc(C(=O)NCc4cccs4)cc3)nc3cccnc32)c1", "survival": "inactive: 92%"}
{"smiles": "CC(C)c1ccc(NC(=O)c2cc(S(=O)(=O)NC3CCCCC3)ccc2F)cc1", "survival": "inactive: 102%"}
{"smiles": "COCCCN1C(=O)c2[nH]nc(-c3ccccc3O)c2C1c1ccc(OC)cc1", "note": "(stereo unspecified)", "survival": "inactive: 53%"}
{"smiles": "COc1ccc(Cl)cc1NC(=O)COC(=O)CC(C)(C)CC1=NS(=O)(=O)c2ccccc2N1", "survival": "inactive: 70%"}
{"smiles": "COC(=O)c1cc(C)nc2c1c(=O)nc(SCc1cccc(C(F)(F)F)c1)n2C1CC1", "survival": "inactive: 74%"}
{"smiles": "CCN(CC)CCCNC(=O)C(C)n1nc(C)n2c(cc3occc32)c1=O", "note": "(stereo unspecified)", "survival": "inactive: 88%"}
{"smiles": "Cc1c(Cl)cccc1NC(=O)CCn1cnnn1", "survival": "inactive: 83%"}
{"smiles": "CC1=C(C(=O)Nc2ccc(F)cc2)C(c2ccc(N(C)C)cc2)NC(=O)N1", "note": "(stereo unspecified)", "survival": "inactive: 140%"}
{"smiles": "CCC1CN(C(=O)C2CCN(S(=O)(=O)c3c(C)noc3/C=C/c3ccc(C)cc3)CC2)c2cc(C)ccc2O1", "note": "(stereo unspecified)", "survival": "inactive: 78%"}
{"smiles": "CCOc1ccc(CCNC(=O)Cn2ccc3cc(S(=O)(=O)N4CCCCCC4)ccc32)cc1", "survival": "inactive: 126%"}
{"smiles": "N=C1SCC(=O)N1c1nc(-c2ccccc2)cs1", "survival": "inactive: 75%"}
{"smiles": "COc1ccc(NC(=O)C(=O)c2cc(C)n(-c3ccc(C)cc3)c2C)cc1Cl", "survival": "inactive: 56%"}
{"smiles": "COCCNC(=O)CCn1c(=O)[nH]c2cc(OC)c(OC)cc2c1=O", "survival": "inactive: 90%"}
{"smiles": "COc1ccc(S(=O)(=O)Nc2ccc(S(=O)(=O)N3CCCC3)cc2)cc1C", "survival": "inactive: 78%"}
{"smiles": "NC(=O)C1CCN(C(=O)C2CCN(S(=O)(=O)c3ccc(-n4cnnn4)cc3)CC2)CC1", "survival": "inactive: 97%"}
{"smiles": "COc1ccc(N2CCN(c3ncnc4onc(C)c34)CC2)cc1", "survival": "inactive: 67%"}
{"smiles": "O=C(Nc1cc(-c2ccc(F)c(F)c2)no1)c1ccccc1F", "survival": "inactive: 66%"}
{"smiles": "Cc1cccc(N2CCN(C(=O)C3CCCN(C(=O)c4cc5sccc5n4C)C3)CC2)c1C", "note": "(stereo unspecified)", "survival": "active: 53%"}
{"smiles": "CCOc1ccccc1NC(=O)N1CCC(N2CCN(Cc3ccccc3)C(=O)C2=O)CC1", "survival": "inactive: 69%"}
{"smiles": "NC(=O)c1ccccc1NC(=O)CSc1nc(N)cc(=O)[nH]1", "survival": "inactive: 76%"}
{"smiles": "CCc1cc2c(-c3ccccc3)cc(=O)oc2c2c1OCN(Cc1ccc(C)cc1)C2", "survival": "inactive: 60%"}
{"smiles": "CC(Oc1ccccc1F)C(=O)N1CCC(c2nc3ccccc3o2)CC1", "note": "(stereo unspecified)", "survival": "active: -1%"}
{"smiles": "O=c1c2ccccc2nc(-c2ccc(Cl)cc2)n1CCCCOc1ccc(F)cc1", "survival": "active: 45%"}
{"smiles": "CNC(=S)N(CCN1CCOCC1)Cc1cc2cc(C)c(Cl)cc2[nH]c1=O", "survival": "inactive: 87%"}
{"smiles": "COc1ccccc1NC(=O)C1=C(C)Nc2nc(SCc3ccccc3)nn2C1c1cccs1", "note": "(stereo unspecified)", "survival": "inactive: 114%"}
{"smiles": "O=C(NCCc1ccc(Cl)cc1)c1ccc2c(c1)N(Cc1ccccc1)C(=O)CS2", "survival": "active: 25%"}
{"smiles": "Cc1ccc(NC(=O)CN2C(=O)c3ccccc3Sc3ncccc32)c(C)c1", "survival": "inactive: 96%"}
{"smiles": "Cc1ccc(NC(=O)c2sc3nc[nH]c(=O)c3c2C)cc1C", "survival": "inactive: 86%"}
{"smiles": "Cc1sc2ncnc(N3CCC(C)CC3)c2c1C", "survival": "inactive: 95%"}
{"smiles": "CCn1c(SCC(=O)Nc2cc(Cl)ccc2OC)nc2c([nH]c3ccccc32)c1=O", "survival": "inactive: 101%"}
{"smiles": "CC(=O)c1ccc(NC(=O)c2nn(C)c3c2COc2ccccc2-3)cc1", "survival": "inactive: 72%"}
{"smiles": "COc1ccc(CNC(=O)CCS(=O)(=O)c2cc3c4c(c2)CCN4C(=O)CC3)cc1", "survival": "inactive: 78%"}
{"smiles": "COC(=O)c1ccc(NC(=O)c2cc3cc4ccc(OC)c(Cl)c4nc3s2)cc1", "survival": "inactive: 98%"}
{"smiles": "Cn1cc(C(=O)N2CCN(c3ccccc3)CC2)c(=O)c2cc(S(=O)(=O)N3CCCC3)ccc21", "survival": "inactive: 133%"}
{"smiles": "O=C(NC1CC(=O)N(c2ccc(F)cc2)C1)C(c1ccccc1)c1ccccc1", "note": "(stereo unspecified)", "survival": "inactive: 124%"}
{"smiles": "COc1ccc(-c2noc(CSc3nnc(-c4ccncc4)n3-c3ccc(OC)cc3)n2)cc1", "survival": "inactive: 92%"}
{"smiles": "Cc1cccc(NC(=O)Cn2c(=O)oc3cc(S(=O)(=O)N4CCCCCC4)ccc32)c1", "survival": "inactive: 78%"}
{"smiles": "COC(=O)c1ccc(NC(=O)CCOc2ccccc2)cc1", "survival": "inactive: 69%"}
{"smiles": "Cc1ccc(Cn2c(Cc3ccccc3)nc3ccccc32)cc1", "survival": "active: -1%"}
{"smiles": "CN1C(=O)SC(N(CC(N)=O)c2ccccc2)C1=O", "note": "(stereo unspecified)", "survival": "inactive: 61%"}
{"smiles": "CCOc1ccc(CN2C(=O)c3ccccc3Sc3ccc(C(=O)NC4CCC(C)CC4)cc32)cc1", "note": "(stereo unspecified)", "survival": "inactive: 83%"}
{"smiles": "CCOC(=O)c1ccccc1NC(=O)CCc1c(C)nc2c(c1C)c(=O)n(C)c(=O)n2C", "survival": "inactive: 96%"}
{"smiles": "Cc1ccc(N(CC(=O)NCc2ccc(OC(C)C)cc2)S(=O)(=O)N(C)C)cc1", "survival": "inactive: 73%"}
{"smiles": "COc1ccccc1CCNC(=O)C1CCN(c2nc3ccccc3nc2C(F)(F)F)CC1", "survival": "inactive: 117%"}
{"smiles": "COC(=O)c1ccccc1NC(=O)CSc1c2c(nc3ccc(Cl)cc13)CCCC2", "survival": "inactive: 86%"}
{"smiles": "Cc1cc(C)c(S(=O)(=O)Nc2ccc(-c3ccc(N4CCCCC4)nn3)cc2)cc1C", "survival": "inactive: 54%"}
{"smiles": "COc1cccc(CNC(=O)C2CCCN(c3nnc(-n4c(C)ccc4C)s3)C2)c1", "note": "(stereo unspecified)", "survival": "inactive: 82%"}
{"smiles": "O=C(NCC(c1cccnc1)N1CCN(Cc2ccccc2)CC1)C(=O)Nc1ccc(F)cc1", "note": "(stereo unspecified)", "survival": "inactive: 89%"}
{"smiles": "COCCNC(=O)c1ccc(NC(=O)N2CCCCc3ccccc32)cc1", "survival": "inactive: 58%"}
{"smiles": "CCOc1ccc(CNC(=O)CN2C(=O)CSc3c2c(C)nn3-c2ccccc2)cc1", "survival": "inactive: 78%"}
{"smiles": "COc1nc(N(C)C)nc(N(CN2C(=O)c3ccccc3C2=O)S(=O)(=O)c2ccc(C)cc2)n1", "survival": "inactive: 95%"}
{"smiles": "O=C(Nc1c(O)c2ccccc2oc1=O)c1ccccc1Cl", "survival": "inactive: 58%"}
{"smiles": "Cc1ccc(CSc2nc3cccnc3n2Cc2nc(-c3ccccc3F)oc2C)cc1", "survival": "inactive: 99%"}
{"smiles": "CCOc1ccc(-n2nc3ccc(NC(=O)COc4ccccc4C)cc3n2)cc1", "survival": "inactive: 50%"}
